Consider ten compounds from the antibiotic and cytotoxicity screens of Wong et al. (2023).

Each structure is given as a SMILES string. Some of the results follow.

The subject of the assay is S. aureus RN4220. Kind of assay: growth inhibition call (relative growth <= 0.2). Conditions: 50 µM.
Turning to `C[C@H]1CN([C@@H](C)CO)C(=O)c2cc(NC(=O)Cc3ccccc3)ccc2O[C@H]1CN(C)Cc1ccc(Oc2ccccc2)cc1`, the growth inhibition call was “inactive”.
Regarding `[N-]=[N+]=NCc1ccccc1C[C@@]1(C(=O)N2CCCCC2)N=C(c2ccc(OCCCO)cc2)O[C@@H]1c1ccccc1`, the growth inhibition call was “inactive”.
On to `COC(=O)C1=C2CC[C@H](CO)NC(=O)N[C@H](Cc3ccccc3)C(=O)NCc3cn(nn3)C[C@@H](Cc3ccccc3)NC(=O)c3oc(c(C(=O)OC)c3C(=O)OC)CC[C@H](CO)NC(=O)N[C@H](Cc3ccccc3)C(=O)NCc3cn(nn3)C[C@@H](Cc3ccccc3)NC(=O)C(=C1C(=O)OC)O2`, for which the growth inhibition call was “inactive”.
Next, `COc1ccc(CN(C)C[C@@H]2Oc3c(NS(=O)(=O)c4cn(C)cn4)cccc3C(=O)N([C@H](C)CO)C[C@@H]2C)cc1`: “inactive”.
As for `C[C@@H]1CN([C@H](C)CO)C(=O)c2cc(NC(=O)NC3CCCCC3)ccc2O[C@@H](C)CCCCO[C@@H]1CN(C)C(=O)c1ccccc1`, the entry is “inactive”; as for `Cl.N=C(NN=Cc1ccc(Cl)cc1)NN=Cc1ccc(Cl)cc1`, “inactive”; as for `CNC(=O)C[C@H]1CC[C@@H]2[C@H](COc3ccc(NC(=O)c4ccc(C(F)(F)F)cc4)cc3C(=O)N2C)O1`, “inactive”.
As for `C[C@H](CO)N1C[C@H](C)[C@H](CN(C)Cc2ccc(C(=O)Nc3ccccc3N)cc2)Oc2ccc(NC(=O)Nc3ccc(F)cc3)cc2C1=O`, the entry is “inactive”; as for `Cc1ccc(S(=O)(=O)Nc2ccc3c(c2)C(=O)N([C@H](C)CO)C[C@H](C)[C@@H](CN(C)C(=O)Nc2ccc4c(c2)OCO4)OCCCC[C@@H](C)O3)cc1`, “inactive”.
Take `C[C@@H]1CN([C@H](C)CO)C(=O)Cc2cc(NC(=O)Nc3cccc4ccccc34)ccc2O[C@H]1CN(C)C(=O)NC1CCCCC1`: the growth inhibition call is “inactive”.
